For 153 variants, enrichment ratio results are on record in a collection of fitness landscapes (doi:10.1126/science.1257360).

B1: PhoQ; a variant is named by its letters at X, in order, P23837 (parent)
chain: MKKLLRLFFPLSLRVRFLLATAAVVLVLSLAYGMVALIGYSVSFDKTTFRLLRGESNLFYTLAKWENNKLHVELPENIDKQSPTMTLIYDENGQLLWAQRDVPWLMKMIQPDWLKSNGFHEIEADVNDTSLLLSGDHSIQQQLQEVREDDDDAEMTHSVAVNVYPATSRMPKLTIVVVDTIPVELKSSYMVWSWFIYVLSANLLLVIPLLWVAAWWSLRPIEALAKEVRELEEHNRELLNPATTRELTSLVRNLNRLLKSERERYDKYRTTLTDLTHSLKTPLXXLQXXLRSLRSEKMSVSDAEPVMLEQISRISQQIGYYLHRASMRGGTLLSRELHPVAPLLDNLTSALNKVYQRKGVNISLDISPEISFVGEQNDFVEVMGNVLDNACKYCLEFVEISARQTDEHLYIVVEDDGPGIPLSKREVIFDRGQRVDTLRPGQGVGLAVAREITEQYEGKIVAGESMLGGARMEVIFGRQHSAPKDE

The list shows a part of the results. Where only a bound is given, the exact number is not on record here.

The assay covers variants of B1. In words: enrichment ratio after two sorts for PhoP signalling (ratio (wild type AVST 3.29)); higher = more functional. Particulars: with PhoP (E. coli).
As for YMSI, the enrichment ratio is at most 0.25. As to AYGS, the enrichment ratio was at most 0.25. Consider CIWF, for which the enrichment ratio is at most 0.25. Turning to MMFP, the enrichment ratio is at most 0.25.

Take NEMF: the enrichment ratio is at most 0.25. Take VLGC: the enrichment ratio was at most 0.25. With SCGV, the enrichment ratio came out at 4.54. As to FHLY, the enrichment ratio was at most 0.25. In the case of YPDL, the enrichment ratio was at most 0.25. Consider IRYI, for which the enrichment ratio is at most 0.25.

MEYD: the enrichment ratio was at most 0.25. For MIMS, the enrichment ratio was at most 0.25. As for NYML, the figure is at most 0.25; as for AWGS, at most 0.25. Turning to TSIG, the enrichment ratio is at most 0.25.

For TDIF, the enrichment ratio was at most 0.25. Take AEDK: the enrichment ratio was at most 0.25. Take NQWN: the enrichment ratio is at most 0.25. For the variant DPWF, the enrichment ratio is at most 0.25. Take YLQQ: the enrichment ratio was at most 0.25. For ANWV the value was 0.326; for PMDW, at most 0.25.

As to IHCM, the enrichment ratio is at most 0.25. Take RYKN: the enrichment ratio is at most 0.25. With RDCM, the enrichment ratio was at most 0.25. As to MMYC, the enrichment ratio was at most 0.25. With TPHI, the enrichment ratio is at most 0.25. Take GTTG: the enrichment ratio was at most 0.25. For VWKS the value was at most 0.25. Regarding LISQ, the enrichment ratio is at most 0.25. Regarding EFKA, the enrichment ratio is at most 0.25. On to PWIM, for which the enrichment ratio is at most 0.25. In the case of EHGP, the enrichment ratio was at most 0.25. As for PGDL, the enrichment ratio is at most 0.25.

In the case of DFCY, the enrichment ratio is at most 0.25. Turning to FTTW, the enrichment ratio was at most 0.25. As for VTPA, the figure is at most 0.25; as for NNLK, at most 0.25; as for MDIN, at most 0.25. For WAPD, the enrichment ratio was at most 0.25. Turning to HYDH, the enrichment ratio was at most 0.25.

QPIP: the enrichment ratio was at most 0.25. Take LTVW: the enrichment ratio is at most 0.25. For WEHY the value was at most 0.25; for LLAP, at most 0.25; for TFWN, at most 0.25. In the case of EIFQ, the enrichment ratio was at most 0.25. ALTN: the enrichment ratio is 7.81. As for QIFQ, the enrichment ratio is at most 0.25. With THFK, the enrichment ratio was at most 0.25. For WFLL the value was at most 0.25; for ICCS, at most 0.25.

For QQYY, the enrichment ratio is 6.44. As for NFRE, the enrichment ratio was at most 0.25. Consider TRAS, for which the enrichment ratio is at most 0.25. Turning to MLIL, the enrichment ratio is at most 0.25. As for MIWP, the figure is at most 0.25; as for DIIR, at most 0.25; as for QFSN, at most 0.25.

Turning to SSCN, the enrichment ratio was 16.9. Turning to SRLL, the enrichment ratio turned out to be 10.3. For ERTF the value was at most 0.25; for SVVW, at most 0.25. INCN: the enrichment ratio is at most 0.25. For IWFV the value was at most 0.25; for ACYW, at most 0.25; for VLML, at most 0.25. Take FMYR: the enrichment ratio is at most 0.25. As for DCWV, the enrichment ratio was at most 0.25. In the case of WAHK, the enrichment ratio is at most 0.25. As for NLDP, the enrichment ratio was at most 0.25. Regarding YLDS, the enrichment ratio was at most 0.25. Turning to LEYN, the enrichment ratio was at most 0.25. Turning to DFDE, the enrichment ratio is at most 0.25. Turning to TMFK, the enrichment ratio is at most 0.25. As for MITF, the figure is 8.42; as for DCNK, at most 0.25; as for EMIS, at most 0.25. As for VPVI, the figure is at most 0.25; as for EHPR, at most 0.25. Take EPYG: the enrichment ratio is at most 0.25. As to IAAD, the enrichment ratio is at most 0.25. For the variant TGRY, the enrichment ratio was at most 0.25. As for AAVC, the enrichment ratio was at most 0.25. In the case of VKTV, the enrichment ratio is at most 0.25. Consider YSSG, for which the enrichment ratio is 0.26.

Regarding HLGH, the enrichment ratio was at most 0.25. Consider EHNN, for which the enrichment ratio is at most 0.25. Consider HEYM, for which the enrichment ratio was at most 0.25. With KLSD, the enrichment ratio was at most 0.25. Turning to WLIR, the enrichment ratio was at most 0.25. As for HVVF, the enrichment ratio was at most 0.25. For IHKK, the enrichment ratio is at most 0.25. With FTDE, the enrichment ratio was at most 0.25. With HQEW, the enrichment ratio is at most 0.25.

In the case of MPDQ, the enrichment ratio is at most 0.25. As for MFKW, the figure is at most 0.25.

HCVF: the enrichment ratio is at most 0.25. Take YKLT: the enrichment ratio is at most 0.25. As for GPLQ, the figure is at most 0.25. With PKEF, the enrichment ratio is at most 0.25.

On to EIDE, for which the enrichment ratio is at most 0.25. Turning to NIRN, the enrichment ratio is at most 0.25.

As to FQAD, the enrichment ratio was at most 0.25. As to IRWW, the enrichment ratio is at most 0.25.

Consider MPLT, for which the enrichment ratio was at most 0.25.

With RAIR, the enrichment ratio was at most 0.25. Take TVGE: the enrichment ratio is at most 0.25.

As to GNGD, the enrichment ratio is at most 0.25.

With AAAI, the enrichment ratio is 1.63. For the variant RQYD, the enrichment ratio was at most 0.25. MFGH: the enrichment ratio was at most 0.25. As for RLKR, the enrichment ratio is at most 0.25.

Turning to TVIQ, the enrichment ratio was at most 0.25. As for KAIR, the enrichment ratio was at most 0.25. As to SYSQ, the enrichment ratio was at most 0.25. For KFNY the value was at most 0.25; for FANW, at most 0.25. Take CFPC: the enrichment ratio is at most 0.25. On to WKWK, for which the enrichment ratio is at most 0.25. As for FYTC, the figure is at most 0.25. With SILI, the enrichment ratio is 4.12. As to YNVS, the enrichment ratio was 0.288. Take VHCH: the enrichment ratio is at most 0.25. Turning to NPPL, the enrichment ratio was at most 0.25.

For the variant KHCQ, the enrichment ratio was at most 0.25. For the variant AWCK, the enrichment ratio is 1.52. Regarding VCNL, the enrichment ratio was at most 0.25. For VMPC, the enrichment ratio is at most 0.25. Take MAFK: the enrichment ratio is at most 0.25. Regarding PVNA, the enrichment ratio was at most 0.25. As to EQYM, the enrichment ratio is at most 0.25.

For the variant LGPA, the enrichment ratio is at most 0.25. For the variant KQCF, the enrichment ratio was at most 0.25. For TKFI, the enrichment ratio is 9.39. For TDVG the value was 4.14. In the case of RTFN, the enrichment ratio was at most 0.25. Consider HTAN, for which the enrichment ratio is at most 0.25. Take VDYM: the enrichment ratio was at most 0.25. For KIGG, the enrichment ratio was at most 0.25. As for LRIL, the enrichment ratio is at most 0.25. Consider GCNW, for which the enrichment ratio is at most 0.25. Turning to TCRC, the enrichment ratio was at most 0.25. On to IWMQ, for which the enrichment ratio was at most 0.25. As for IHWQ, the figure is at most 0.25; as for QERH, at most 0.25; as for TSGP, at most 0.25.

As for YRQW, the enrichment ratio was at most 0.25. WDRC: the enrichment ratio was at most 0.25. For WTAM, the enrichment ratio is at most 0.25.

Take WFDD: the enrichment ratio was at most 0.25.

Turning to LTFA, the enrichment ratio is at most 0.25.

LMEW: the enrichment ratio is at most 0.25.
